Measurements published in the supplement of paper PMC11417369.
± gives the standard deviation of the averaged measurements. Some of the results follow.

System: PfAP2-I AP2 domain 3 (GST-tagged)
Assay: gcPBM binding intensity (ln(normalized median fluorescence intensity)); higher = stronger DNA binding
Procedure, shortened: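 In this array assay, P. falciparum DNA-binding domains with a GST tag, expressed in E. coli, were applied for 1 h to primer-extended double-stranded 36-bp intergenic genomic probes and negative controls on an Agilent 4 × 180k array. Bound protein was visualised with Alexa488 anti-GST antibody at 488 nm. Binding intensity is the highest Masliner-normalised natural-log median intensity across replicate spots of either probe orientation.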

Sequence	gcPBM binding intensity (ln)
AACAAAATAGGGAACACACACATGTCAATATATAAA [CACACA_site2596]	7.9 ± 0.62
TGAACACGCACAAATACACACAAAAAAAATAAATAA [CACACA_site6257]	8.12 ± 0.092
CCATTAAGACACATTGCACACGTGCACCCATAGAAA [CACACA_site4388]	10.79 ± 0.021
ATAGTATAACAGCAATGTACACATATTTGTGTATAT [XGTACX_site7899]	7.82 ± 0.4
TATATATATAAACACACACACACATATATATATATT [CACACA_site8814]	8.6 ± 0.36
ATATATATTTAAATGTGTACTCATTTATTTTATGTC [XGTACX_site4984]	8.11 ± 0.28
TTTTTTTTTTTTGTCACACATATATTTGTATTTATA [CACACA_site5234]	8.16 ± 0.73
TGATATTTATAATAAATATTATAATAAAATCAAACA [XGTACX_negctrl_site219]	7.38 ± 0.54
ATATATATTTTTATTTGTACATAATTTTTTTTGTGA [XGTACX_site6378]	8.02 ± 0.59
ATATATGTAATAAATAGTACACACACACATATATAT [XGTACX_site2817]	8.24 ± 0.49
TTTTTTTTTTTTTGCACACACATATATAGATATATA [CACACA_site7784]	9.69 ± 0.26
ATAAAATTGTTTAAATGTACATATGAACAGTCAGTA [XGTACX_site5140]	7.82 ± 0.54
AAATTACTTTCACAGTGTACTTGGAAAAAAAAAAGA [XGTACX_site1046]	7.84 ± 0.54
TTTTTTTTTTTTTTTTGTACGTAATATATGATTAAT [XGTACX_site6876]	8.18 ± 0.69
CATTTTATCAAAAGTGGTACAACCCTTTCAAAAAAT [XGTACX_site341]	7.65 ± 0.49
AGATATAATAAATATACACACATATATATATATATA [CACACA_site962]	9.2 ± 0.76
TGAAAAATGTTGATGTGTACTTATATAGTGTGTTAA [XGTACX_site2100]	8.2 ± 0.36
TAATTTTATATATGCACACAAAATATGTTCATATAA [CACACA_site4076]	9.08 ± 0.24
TTTAACATAAATTAAACACACAATATAATACATTAA [CACACA_site1237]	7.61 ± 0.43
TTACATAATATATGTACACACGCAAATACTTATAAT [CACACA_site7995]	8.04 ± 0.25
TATAAATATGTTCTTACACACACGAATATAAATATG [CACACA_site7537]	7.79 ± 0.31
TATATTTCTTATTTCTTATTTTGTCATCACCTTTTT [CACACA_negctrl_site1115]	7.65 ± 0.67
CACACCCACAAAAACACACACAAAGGTGTTCTTATA [CACACA_site1293]	7.54 ± 0.57

Sequence	gcPBM binding intensity (ln)
TATTTATTTTTTTGCACACATATTTTACATTTTAAT [CACACA_site3181]	9.755 ± 0.021
ATAACATTCATATTCACACAAAAATATACTACATAG [CACACA_site4529]	7.73 ± 0.48
TATATATATATATATACACACATATATATATTTATA [CACACA_site627]	9.55 ± 0.48
TGTAGTCTGGAGAAACGTACATAGTATCTGGTAACC [XGTACX_site4939]	8.02 ± 0.71
ATATAAAAAGTGTATCGTACATTTACTTATTTTATA [XGTACX_site6249]	7.64 ± 0.42
ATAAAAAAAGGACACACACACATATATATATATATA [CACACA_site5662]	9.45 ± 0.3
ATTGAAAATTGTTGCACACATAATAATTAAATATAT [CACACA_site1857]	9.1 ± 0.19
GTTTATTTATTATAATGTACATTAGTCTGAGGAGTT [XGTACX_site4035]	8.04 ± 0.57
TTTTATTTATATATAGTGCATATTATTATAAAACAA	10.48 ± 0.071
ATATATATATATATATGTACATATGTTAATCTGCAT [XGTACX_site1068]	9.44 ± 0.42
CTTTTTTTCCATTAAGCATGCACATTCATATTTACT [TGCATGCA_site170]	8.31 ± 0.81
TATATATATATAGGTTGTACATTTTGATGTTTACGT [XGTACX_site5503]	9.49 ± 0.26
TACTTTTTTTTTTTTTTTTTTTTTTTTTCCCTTTTT [CACACA_negctrl_site761]	7.47 ± 0.53
TTATTACGAACTCTGCAACATATATAAATAAATAAA [CACACA_negctrl_site44]	7.83 ± 0.47
AAAATAATATTTAATACACACATAATTACAATATAA [CACACA_site6510]	7.77 ± 0.35
TACGTATTCATGTATAGTACTCTTTTTTTTAATAAA [XGTACX_site3299]	7.61 ± 0.38
ACAAGTGTATATGTTATATATATATATATATATATA [CACACA_negctrl_site1686]	9.51 ± 0.76
AAAGATAAAATATATACACACACATAAATACGTACA [CACACA_site8275]	7.78 ± 0.45
CATACACGCGGACACACACACACACGCATATATAAC [CACACA_site6427]	8.22 ± 0.42
ATTATATTTGAATGGTGTACTATAATAATGTAGTTT [XGTACX_site8069]	8.48 ± 0.28
ACATATATATATATATAAATATATATGTATGTATTT [XGTACX_negctrl_site237]	7.64 ± 0.34
GAATAAATTAAATTCACACATAAAATACAAAATACA [CACACA_site5495]	7.68 ± 0.52
AAAGAAAATAGGTGTACACATAATAAATACAGCTAT [CACACA_site5917]	8.34 ± 0.52

Sequence	gcPBM binding intensity (ln)
CTTATATTAATTATTACACACATATATATAAATGCA [CACACA_site770]	8.05 ± 0.38
AAAACAAATAAGTAAACACACATATATAATATATAT [CACACA_site2586]	7.79 ± 0.52
AAAAAAAAAAAAACTAGTACATATATATAGTATGAA [XGTACX_site6279]	7.6 ± 0.42
ATTTATATTTTATATACACACATGAACTTATATGGA [CACACA_site3167]	7.72 ± 0.43
GAATATAAAAGGAACGGTACAGAAAAAAAAAAAAAA [XGTACX_site3917]	8.02 ± 0.81
TTTATTTTTTATATATCACTTAAAAAAAAAAAAAAA [CACACA_negctrl_site249]	8.02 ± 0.67
ATGTAATATATTATATGTACATATTTTTATGTAGAT [XGTACX_site5945]	8.02 ± 0.42
ATAACCTAATAATACACACACATGAATATATATAAT [CACACA_site4689]	8.01 ± 0.44
CTTTTTTTTTTATGCACACACAATTATACATTCCTT [CACACA_site3877]	10.4 ± 0.24
AATATAGTCTCACATACACACATATATATTTATATA [CACACA_site2503]	7.83 ± 0.66
AATATATTTTTTTTTGGTACACAAGCACATCTATAC [XGTACX_site2183]	8.2 ± 0.28
TTTCGATTATGTTTTTGTACGCAATATATTAATTCT [XGTACX_site3634]	7.85 ± 0.48
CCATGATTATTAGATTGTACATAACATACAAATTGA [XGTACX_site314]	7.68 ± 0.45
AATGTGCAGAAAAGTGGTACATATGATTGTTAAGAG [XGTACX_site1038]	8.96 ± 0.6
ATGTCATATATATGTTGTACGAGTTTGTTTATGTAT [XGTACX_site1150]	7.97 ± 0.57
TTCATTTTATAAAAAGCACACATATAGTTATATGCA [CACACA_site9228]	8.2 ± 0.34
AGTTTACATTAAATCACGCACACAAAAAAAAAAAAA [CACACA_site2419]	8.11 ± 0.68
TACCTTTTTTATGTTGCACACTGGGATGTTTTCTAA [CACACA_site1653]	9.51 ± 0.15
AGTAATATAATATAAGCACACGTGTATTTATTTAGT [CACACA_site4246]	8.3 ± 0.6
TGCACATTTATGTAACGTACAAAATATAATATGTTA [XGTACX_site8255]	7.95 ± 0.19
GTATAAAAGTAATGTAGTACTTATATATTTTTATTT [XGTACX_site8975]	7.58 ± 0.3
TCCTTATATTGGCACACACACACAATAAAATGAAAA [CACACA_site4715]	8.91
GGTTGCTTCAGTGAATGTACATAGTGGTAAACAAGC [XGTACX_site166]	8.64 ± 0.76

Sequence	gcPBM binding intensity (ln)
TGGGAGCACAGACACACACACACACCCATATATATA [CACACA_site335]	8.54 ± 0.73
TACAAAATAAAAATAATTCTTTCAAAAAATAATAAA [XGTACX_negctrl_site368]	7.25 ± 0.39
GTATATAATATTAGTGCACACACAAAAATGTACTAA [CACACA_site8112]	11.4 ± 0.55
AGTTTAATATAAAATACACACTACTCTTATAAATAT [CACACA_site6803]	7.7 ± 0.51
GAAATAATAAATTAAAAATCGTTTATAACATTTAAC [CACACA_negctrl_site425]	7.17 ± 0.4
ATTTTCTTTCTATGCACACGCACGTATTTGCACCCA [CACACA_site3350]	11.5 ± 0.39
CTTTTTTTTTGATGTTGTACATATATATTATATAAT [XGTACX_site1321]	8.16 ± 0.42
TTTTTAATTTAAAAAAATAATATTTTATATTCCGAA [CACACA_negctrl_site108]	7.49 ± 0.27
AAATATTTATATATATGTACACATATAATATTTTTA [XGTACX_site2338]	7.62 ± 0.32
TATTTTTTATTTTTTTGTACATATTTGATAATTAAT [XGTACX_site316]	7.8 ± 0.52
GTAAGCATCAAAAAAGGTACAGAAATTATAAATAAA [XGTACX_site6708]	7.8 ± 0.52
GAAAATTTATTTTTGGTGCATGTATTTATTTATTTT	9.21 ± 0.042
ATTTCTAATATTTTTGCACACTAAACAATAAATTTC [CACACA_site3943]	9.41 ± 0.21
ATATATGTTATTATTTGTACACACACATATATATCC [XGTACX_site7657]	8.27 ± 0.68
TATATATATTCTTTAAAACACACGTAAAGAAGAATT [CACACA_site2718]	7.94 ± 0.62
AAAAAAAAAAGAAACACACACATATATATATATAAT [CACACA_site5052]	7.49 ± 0.55
CATTTATTTATATACACACACACAAAAAAAAAAAAA [CACACA_site7279]	8.19 ± 0.4
TGCTATATTATTATCGCACACCGTTGATTCTAAATA [CACACA_site1207]	9.29 ± 0.28
ATAAGTGTATAAAAATGTACGTGTATAAAAATATGT [XGTACX_site8235]	8.37 ± 0.67
ACTAACATATATTCAACACACATATACCTTCAACCC [CACACA_site3011]	7.94 ± 0.72
